Measured values from the supplement of paper PMC8728848.
The list shows a part of the results.

How the values were obtained:
Assay in all cases: glycan array binding signal (z-score within array); higher = stronger binding
Settings in all cases: glycan notation: IUPAC condensed, linker removed
[1] = target: Gal(b1-4)GlcNAc(b1-2)Man(a1-6)[GlcNAc(b1-2)Man(a1-3)]Man(b1-4)GlcNAc(b1-4)GlcNAc
Procedure, shortened: (§1)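 Glycan array data were curated from 3228 arrays in the Consortium for Functional Glycomics database and kept only where the protein sequence was available. Glycan names were converted to IUPAC-condensed notation, and columns mapping to the same glycan were averaged. The binding signal is a within-array Z-score, averaged across arrays of the same protein sequence at different concentrations or buffers and across linkers. Negative Z-scores can be read as non-binding.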

[2] = target: Gal(b1-4)GlcNAc(b1-2)Man(a1-6)[Man(a1-3)]Man(b1-4)GlcNAc(b1-4)GlcNAc
Procedure, shortened: as §1

[3] = target: Gal(b1-4)GlcNAc(b1-2)[Gal(b1-4)GlcNAc(b1-4)]Man(a1-3)[Gal(b1-4)GlcNAc(b1-2)Man(a1-6)]Man(b1-4)GlcNAc(b1-4)GlcNAc
Procedure, shortened: as §1

[4] = target: Gal(b1-4)GlcNAc(b1-2)[Gal(b1-4)GlcNAc(b1-4)]Man(a1-3)[Gal(b1-4)GlcNAc(b1-2)[Gal(b1-4)GlcNAc(b1-6)]Man(a1-6)]Man(b1-4)GlcNAc(b1-4)GlcNAc
Procedure, shortened: as §1

[5] = target: Gal(b1-4)GlcNAc(b1-2)[Gal(b1-4)GlcNAc(b1-4)]Man(a1-3)[GlcNAc(b1-4)][Gal(b1-4)GlcNAc(b1-2)Man(a1-6)]Man(b1-4)GlcNAc(b1-4)GlcNAc
Procedure, shortened: as §1

[6] = target: Gal(b1-4)GlcNAc(b1-2)[Gal(b1-4)GlcNAc(b1-4)]Man(a1-3)[GlcNAc(b1-4)][Gal(b1-4)GlcNAc(b1-2)[Gal(b1-4)GlcNAc(b1-6)]Man(a1-6)]Man(b1-4)GlcNAc(b1-4)GlcNAc
Procedure, shortened: as §1

[7] = target: Gal(b1-4)GlcNAc(b1-2)[Gal(b1-4)GlcNAc(b1-6)]Man(a1-6)[Gal(b1-4)GlcNAc(b1-2)Man(a1-3)]Man(b1-4)GlcNAc(b1-4)GlcNAc
Procedure, shortened: as §1

[8] = target: Gal(b1-4)GlcNAc(b1-2)[Gal(b1-4)GlcNAc(b1-6)]Man(a1-6)[Gal(b1-4)GlcNAc(b1-2)Man(a1-3)]Man(b1-4)GlcNAc(b1-4)[Fuc(a1-6)]GlcNAc
Procedure, shortened: as §1

[9] = target: Gal(b1-4)GlcNAc(b1-2)[Gal(b1-4)GlcNAc(b1-6)]Man(a1-6)[GlcNAc(b1-4)][Gal(b1-4)GlcNAc(b1-2)Man(a1-3)]Man(b1-4)GlcNAc(b1-4)GlcNAc
Procedure, shortened: as §1

[10] = target: Gal(b1-4)GlcNAc(b1-2)[Gal(b1-4)GlcNAc(b1-6)]Man(a1-6)[GlcNAc(b1-4)][Gal(b1-4)GlcNAc(b1-2)[Gal(b1-4)GlcNAc(b1-4)]Man(a1-3)]Man(b1-4)GlcNAc(b1-4)[Fuc(a1-6)]GlcNAc
Procedure, shortened: as §1

[11] = target: Gal(b1-4)GlcNAc(b1-3)Gal(b1-3)GalNAc
Procedure, shortened: as §1

[12] = target: Gal(b1-4)GlcNAc(b1-3)Gal(b1-3)GlcNAc
Procedure, shortened: as §1

[13] = target: Gal(b1-4)GlcNAc(b1-3)Gal(b1-4)Glc
Procedure, shortened: as §1

[14] = target: Gal(b1-4)GlcNAc(b1-3)Gal(b1-4)GlcNAc
Procedure, shortened: as §1

[15] = target: Gal(b1-4)GlcNAc(b1-3)Gal(b1-4)GlcNAc(b1-2)Man(a1-3)[Gal(b1-4)GlcNAc(b1-3)Gal(b1-4)GlcNAc(b1-2)Man(a1-6)]Man(b1-4)GlcNAc(b1-4)GlcNAc
Procedure, shortened: as §1

[16] = target: Gal(b1-4)GlcNAc(b1-3)Gal(b1-4)GlcNAc(b1-2)Man(a1-3)[Gal(b1-4)GlcNAc(b1-3)Gal(b1-4)GlcNAc(b1-2)Man(a1-6)]Man(b1-4)GlcNAc(b1-4)[Fuc(a1-6)]GlcNAc
Procedure, shortened: as §1

[17] = target: Gal(b1-4)GlcNAc(b1-3)Gal(b1-4)GlcNAc(b1-2)[Gal(b1-4)GlcNAc(b1-3)Gal(b1-4)GlcNAc(b1-6)]Man(a1-6)[Gal(b1-4)GlcNAc(b1-3)Gal(b1-4)GlcNAc(b1-2)Man(a1-3)]Man(b1-4)GlcNAc(b1-4)GlcNAc
Procedure, shortened: as §1

[18] = target: Gal(b1-4)GlcNAc(b1-3)Gal(b1-4)GlcNAc(b1-2)[Gal(b1-4)GlcNAc(b1-3)Gal(b1-4)GlcNAc(b1-6)]Man(a1-6)[Gal(b1-4)GlcNAc(b1-3)Gal(b1-4)GlcNAc(b1-2)Man(a1-3)]Man(b1-4)GlcNAc(b1-4)[Fuc(a1-6)]GlcNAc
Procedure, shortened: as §1

[19] = target: Gal(b1-4)GlcNAc(b1-3)Gal(b1-4)GlcNAc(b1-3)Gal(b1-4)GlcNAc
Procedure, shortened: as §1

[20] = target: Gal(b1-4)GlcNAc(b1-3)Gal(b1-4)GlcNAc(b1-3)Gal(b1-4)GlcNAc(b1-2)Man(a1-3)[Gal(b1-4)GlcNAc(b1-3)Gal(b1-4)GlcNAc(b1-3)Gal(b1-4)GlcNAc(b1-2)Man(a1-6)]Man(b1-4)GlcNAc(b1-4)GlcNAc
Procedure, shortened: as §1

[21] = target: Gal(b1-4)GlcNAc(b1-3)Gal(b1-4)GlcNAc(b1-3)Gal(b1-4)GlcNAc(b1-2)Man(a1-3)[Gal(b1-4)GlcNAc(b1-3)Gal(b1-4)GlcNAc(b1-3)Gal(b1-4)GlcNAc(b1-2)Man(a1-6)]Man(b1-4)GlcNAc(b1-4)[Fuc(a1-6)]GlcNAc
Procedure, shortened: as §1

[22] = target: Gal(b1-4)GlcNAc(b1-3)Gal(b1-4)GlcNAc(b1-3)Gal(b1-4)GlcNAc(b1-2)[Gal(b1-4)GlcNAc(b1-3)Gal(b1-4)GlcNAc(b1-3)Gal(b1-4)GlcNAc(b1-6)]Man(a1-6)[Gal(b1-4)GlcNAc(b1-3)Gal(b1-4)GlcNAc(b1-3)Gal(b1-4)GlcNAc(b1-2)Man(a1-3)]Man(b1-4)GlcNAc(b1-4)[Fuc(a1-6)]GlcNAc
Procedure, shortened: as §1

B1: Banana lectin (Musa acuminata) (protein)
chain: MNGAIKVGAWGGNGGSAFDMGPAYRIISVKIFSGDVVDAVDVTFTYYGKTETRHFGGSGGTPHEIVLQEGEYLVGMKGEFGNYHGVVVVGKLGFSTNKKSYGPFGNTGGTPFSLPIAAGKISGFFGRGGDFIDAIGVYLEP
- glycan array binding signal (z-score) [1]: -0.132
- glycan array binding signal (z-score) [2]: 2.15
- glycan array binding signal (z-score) [3]: -0.163
- glycan array binding signal (z-score) [4]: 0.448
- glycan array binding signal (z-score) [5]: -0.184
- glycan array binding signal (z-score) [6]: -0.197
- glycan array binding signal (z-score) [7]: -0.076
- glycan array binding signal (z-score) [8]: -0.147
- glycan array binding signal (z-score) [9]: -0.195
- glycan array binding signal (z-score) [10]: -0.195
- glycan array binding signal (z-score) [11]: -0.196
- glycan array binding signal (z-score) [12]: -0.194
- glycan array binding signal (z-score) [13]: -0.193
- glycan array binding signal (z-score) [14]: -0.193
- glycan array binding signal (z-score) [15]: -0.172
- glycan array binding signal (z-score) [16]: -0.172
- glycan array binding signal (z-score) [17]: -0.144
- glycan array binding signal (z-score) [18]: -0.171
- glycan array binding signal (z-score) [19]: -0.196
- glycan array binding signal (z-score) [20]: -0.182
- glycan array binding signal (z-score) [21]: -0.182
- glycan array binding signal (z-score) [22]: -0.169
